These are yes or no findings as the source states them, for the method shown. In cells and extracts the contact can be indirect. Some binding calls cover weakened binding; strength is not graded here.
Legend:
Assay in all cases: co-IP
[1] = biological target: HA-tagged KPNA6 (human (by the printed RefSeq entry NP_036448.1)) (UniProt O60684)
[2] = biological target: Flag-tagged human ANP32B (human) (UniProt Q92688)
[3] = biological target: ANP32A-NLSm-Flag (nuclear localization signal KRKR mutated to AAAA) (human) (UniProt P39687)
[4] = biological target: Flag-tagged human ANP32A (human) (UniProt P39687)
[5] = biological target: ANP32B-NLSm-Flag (nuclear localization signal KRKR mutated to AAAA) (human) (UniProt Q92688)

Chains of the proteins cited; added tags and fusions are not shown. Lines headed by an entry give the natural chain unless they say otherwise; changes in a name come on top. A line that says so, or that is headed by a name, gives the form on record, which may keep a tag or linker.
UniProt Q92688: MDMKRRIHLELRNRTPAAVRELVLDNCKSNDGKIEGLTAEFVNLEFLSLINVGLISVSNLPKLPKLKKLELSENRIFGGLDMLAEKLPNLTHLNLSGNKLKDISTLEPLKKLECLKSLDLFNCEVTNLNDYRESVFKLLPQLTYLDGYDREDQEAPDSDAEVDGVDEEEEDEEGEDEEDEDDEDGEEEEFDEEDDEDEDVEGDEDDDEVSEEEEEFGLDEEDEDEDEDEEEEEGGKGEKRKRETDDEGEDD
ANP32B-NLSm-Flag (nuclear localization signal KRKR mutated to AAAA) (Q92688, form named): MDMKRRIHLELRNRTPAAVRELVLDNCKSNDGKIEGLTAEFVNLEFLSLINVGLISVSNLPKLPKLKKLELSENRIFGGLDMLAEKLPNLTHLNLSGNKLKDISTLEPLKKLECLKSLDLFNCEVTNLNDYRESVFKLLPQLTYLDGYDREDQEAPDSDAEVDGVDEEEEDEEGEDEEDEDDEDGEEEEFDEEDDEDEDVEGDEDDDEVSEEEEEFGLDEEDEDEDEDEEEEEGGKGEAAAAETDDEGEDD
UniProt P39687: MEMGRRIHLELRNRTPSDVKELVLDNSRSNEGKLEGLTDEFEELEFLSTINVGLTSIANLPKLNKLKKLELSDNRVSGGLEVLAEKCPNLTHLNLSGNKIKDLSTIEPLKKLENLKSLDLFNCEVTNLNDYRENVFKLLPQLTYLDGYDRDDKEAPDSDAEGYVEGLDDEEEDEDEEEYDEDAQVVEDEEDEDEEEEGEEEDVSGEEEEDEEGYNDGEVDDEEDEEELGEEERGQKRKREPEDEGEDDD
ANP32A-NLSm-Flag (nuclear localization signal KRKR mutated to AAAA) (P39687, form named): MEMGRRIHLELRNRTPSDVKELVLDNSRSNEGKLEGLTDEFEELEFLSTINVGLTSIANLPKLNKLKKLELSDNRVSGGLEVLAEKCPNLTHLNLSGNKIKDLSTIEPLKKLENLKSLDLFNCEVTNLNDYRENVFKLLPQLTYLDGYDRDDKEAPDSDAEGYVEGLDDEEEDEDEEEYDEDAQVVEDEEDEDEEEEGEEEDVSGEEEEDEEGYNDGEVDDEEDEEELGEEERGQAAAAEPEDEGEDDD

Row | binding [1] | Substance | binding [2] | binding [3] | binding [4] | binding [5]
1 | binds | Flag-tagged human ANP32A (from UniProt P39687 1-249) | – | – | – | –
2 | binds | Flag-tagged human ANP32B (from UniProt Q92688 1-251) | – | – | – | –
3 | – | HA-tagged KPNA6 (from UniProt O60684 1-536) | binds | no binding | binds | no binding
